# In PubChem BioAssay AID2147 (National Center for Advancing Translational Sciences (NCATS), 2009):
# About 3,600 (1.6%) of roughly 230,000 compounds were called active. Inconclusive means that the source gave no clear call. Such entries were picked first, then a sample of the others. The call rests on the fitted dose curve; in most records, active means well fitted inhibition curve with a large enough effect (not every such curve was filed as active); inconclusive means small, poorly fitted or top-dose-only effect, or another doubt; inactive means no such curve, though single readings can be large or run the other way. A potency beside an inconclusive call is a rough fit, not a confirmed value.
# Molecular target: Lysine-specific demethylase 4E (Homo sapiens) (UniProt B2RXH2)
# Chain of UniProt B2RXH2 (B2RXH2 whole entry, looked up, the tested form may be a part): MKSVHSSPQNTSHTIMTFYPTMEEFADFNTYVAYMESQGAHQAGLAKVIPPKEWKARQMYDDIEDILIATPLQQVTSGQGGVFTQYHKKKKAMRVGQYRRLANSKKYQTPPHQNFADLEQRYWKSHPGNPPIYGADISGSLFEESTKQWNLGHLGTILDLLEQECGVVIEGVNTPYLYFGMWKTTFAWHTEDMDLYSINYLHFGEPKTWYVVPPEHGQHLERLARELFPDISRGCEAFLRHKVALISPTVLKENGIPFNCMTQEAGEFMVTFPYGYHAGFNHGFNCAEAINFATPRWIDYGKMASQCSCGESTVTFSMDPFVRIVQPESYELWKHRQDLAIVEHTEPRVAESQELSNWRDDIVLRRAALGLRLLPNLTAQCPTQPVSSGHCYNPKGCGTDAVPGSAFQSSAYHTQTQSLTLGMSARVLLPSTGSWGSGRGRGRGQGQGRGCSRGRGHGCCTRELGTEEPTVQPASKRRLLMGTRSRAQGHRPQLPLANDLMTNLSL
# Assay: qHTS Assay for Inhibitors of Human Jumonji Domain Containing 2E (JMJD2E)
# Conditions: JMJD2E catalytic domain, FDH-coupled NADH fluorescence (FDH is formaldehyde dehydrogenase); series mostly up to 57.1 µM; activity change, negative = inhibition: at the top concentration
# Further: nearly all actives have a fitted effect of over 50% in size.
# Potency means the concentration at half of the fitted maximal effect; tags describe the fitted curve by direction and shape.
# 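Wherever activity change, negative = inhibition is given: 0% = wells with enzyme and -100% = buffer wells without enzyme.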
SMILES,Potency,"activity change, negative = inhibition"
NNc1nc2ccc(F)cc2s1,"inconclusive: 39.8 µM [inhibitor, single point]",–
Cc1c(-c2ccccc2)nc(N)c(C#N)c1-c1ccco1,–,inactive: -4.2%
C[N+](C)(C)CCCCCC(=O)/C=N/O,–,inactive: -22.1%
CCOC(=O)N1CCN(C(=O)c2ccc3c(=O)n(-c4ccc(OC)cc4)c(=S)[nH]c3c2)CC1,–,inactive: 5.39%
Cc1nccn1-c1ccc(C(F)(F)F)cc1[N+](=O)[O-],"inconclusive: 35.5 µM [inhibitor, single point]",–
CC(=O)C1=C(C)NC(SCC(N)=O)=C(C#N)C1c1sccc1C (stereo unspecified),"inconclusive: 39.8 µM [inhibitor, single point]",–
O=C(COC(=O)CNC(=O)c1ccc(Br)o1)Nc1ccccc1OC(F)F,–,inactive: 6.77%
Cc1nc(SCc2ccccc2)c2ccsc2n1,–,inactive: 1.46%
O=C(Cn1cc(/C=C\[N+](=O)[O-])c2ccccc21)Nc1ccccc1,–,inactive: -1.41%
Cn1cnnc1SCCCN1C(=O)c2cccc3cccc(c23)C1=O,"inconclusive: 28.2 µM [inhibitor, single point]",–
Cc1cnc(CNc2nc(-c3ccc4c(c3)OCO4)nc3ccccc23)cn1,"inconclusive: 20 µM [inhibitor, single point]",–
Cc1ccc(-n2c(N)c(C(=O)N3CCOCC3)sc2=S)cc1,"inconclusive: 39.8 µM [inhibitor, single point]",–
Cc1ccnn1CC(=O)N/N=C/c1ccc2c(c1)OCO2,"inconclusive: 39.8 µM [inhibitor, single point]",–
Cn1c(N2CCOCC2)nc(-c2ccccc2)c1-c1ccccc1,"inconclusive: 20 µM [inhibitor, partial curve]",–
COc1ccc(-c2c(N)n[nH]c2C)cc1OC,"inconclusive: 4.47 µM [inhibitor, full curve]",–
CCC(CC)NC(=O)CO/N=C/c1ccccc1OC(F)F,–,inactive: 0.369%
Cc1c(C(=O)O)nn(-c2ccccc2)c(=O)c1C#N,"inconclusive: 17.8 µM [inhibitor, partial curve]",–
CC(=O)N1N=C(c2ccccc2)CC1c1cn(C)c2ccccc12 (stereo unspecified),"inconclusive: 39.8 µM [inhibitor, single point]",–
Cc1ccc(NC(=S)NNC(=S)Nc2ccc(C)cc2C)cc1,–,inactive: -8.23%
CC(C)NC(=O)c1cc(C(=O)c2cc(Cl)ccc2O)coc1=N,"inconclusive: 39.8 µM [inhibitor, single point]",–
COc1ccc(-c2cc(C(F)(F)F)nc(S(=O)(=O)CCCC(=O)Nc3cc(C)on3)n2)cc1OC,"inconclusive: 20 µM [inhibitor, partial curve]",–
